{
  "source": "the supplement of paper PMC8183993",
  "note": "“And” between values parts separate entries of the source, which are not always exact repeats. Equal entries are not always repeated. Structures can show the parent of a compound that is named as a salt. ± gives the standard deviation of the averaged measurements. Whole data set: some 3,200 compounds, median “nuclei count (viability) relative to DMSO” near 99, cut for the lowest 2% near 16. The list shows a part of the results.",
  "data": [
    {"system": "U2OS", "test": "nuclei count (viability) relative to DMSO (% of DMSO); higher = more viable cells", "details": "10 µM; 24 h", "description": "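Primary image-based screen in U2OS cells: compounds at 10 uM for 24 h, then a 1 h o-propargyl-puromycin (OPP) pulse, click labelling, and high-throughput microscopy. Mean cytoplasmic OPP intensity and nuclei count were normalised to DMSO wells within each plate (DMSO = 100) and averaged over triplicate plates.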", "values": [
      {"compound": "C=C1c2cccc(O)c2C(=O)C2=C(O)[C@]3(O)C(=O)C(C(N)=O)=C(O)[C@@H](N(C)C)[C@@H]3[C@@H](O)[C@H]12", "note": "[Methacycline hydrochloride]", "nuclei count": 93.4},
      {"compound": "Cn1c(=O)c2nc[nH]c2n(C)c1=O", "note": "[Theophylline monohydrate]", "nuclei count": 102},
      {"compound": "CNC(=O)CN(CCN(CCN(CC(=O)O)CC(=O)NC)CC(=O)O)CC(=O)O.O.[Gd]", "note": "[Gadodiamide (Omniscan)]", "nuclei count": 101},
      {"compound": "Cc1scc2c1N(C(=O)CN1CCN(C)CC1)c1ccccc1NC2=O", "note": "[Telenzepine dihydrochloride]", "nuclei count": "101 ± 1.5"},
      {"compound": "CC(C)(C)c1[nH]cnc1/C=c1\\[nH]c(=O)/c(=C/c2ccccc2)[nH]c1=O", "note": "[NPI-2358 (Plinabulin)]", "nuclei count": 17.1},
      {"compound": "CC(C)[C@H]1C(=O)N[C@@H](CCCNC(=N)N)C(=O)NCC(=O)N[C@@H](CC(=O)O)C(=O)N[C@H](Cc2ccccc2)C(=O)N1C", "nuclei count": 105},
      {"compound": "O=C(c1cccc(Cl)c1F)N1CCN(Cc2cccc(Nc3nccs3)n2)CC1", "nuclei count": 68.6},
      {"compound": "NC(=O)CC[C@@H](N)C(=O)O", "note": "[D-glutamine]", "nuclei count": 98.1},
      {"compound": "COc1cccc(NC(=O)/C=C/c2ccc(Cl)cc2)c1", "nuclei count": 92.9},
      {"compound": "CC(C)(C)NC[C@H](O)COc1nsnc1N1CCOCC1", "note": "[(S)-Timolol maleate]", "nuclei count": 94.5},
      {"compound": "CC(C)(C)NC[C@H](O)COc1nsnc1N1CCOCC1", "note": "[Timolol maleate salt]", "nuclei count": 96.7},
      {"compound": "O=C(Nc1cccc2c(=O)cc(-c3nnn[nH]3)oc12)c1ccc(OCCCCc2ccccc2)cc1", "note": "[Pranlukast]", "nuclei count": "101 ± 4"},
      {"compound": "Cc1ccc(C(=O)Nc2ccc(CN3CCN(C)CC3)c(C(F)(F)F)c2)cc1C#Cc1cnc2cccnn12", "nuclei count": 16.3},
      {"compound": "NCCCC[C@H](N[C@@H](CCc1ccccc1)C(=O)O)C(=O)N1CCC[C@H]1C(=O)O", "note": "[Lisinopril]", "nuclei count": "105 ± 12"},
      {"compound": "COc1ccc(NC(=O)c2ccc(-c3ccc(-c4noc(C)n4)cc3C)cc2)cc1OCCN(C)C", "nuclei count": 100},
      {"compound": "COC1=C(OC)C(=O)C(CCCCCCCCCCO)=C(C)C1=O", "note": "[Idebenone]", "nuclei count": "96.52 ± 0.73"},
      {"compound": "O=C(Nc1c[nH]nc1-c1nc2ccc(CN3CCOCC3)cc2[nH]1)NC1CC1", "nuclei count": 38.9},
      {"compound": "CCOC(=O)[C@H](CCc1ccccc1)N[C@H]1CCc2ccccc2N(CC(=O)O)C1=O", "note": "[Benazepril HCl]", "nuclei count": 102},
      {"compound": "CCOC(=O)[C@H](CCc1ccccc1)N[C@H]1CCc2ccccc2N(CC(=O)O)C1=O", "note": "[Benazepril hydrochloride]", "nuclei count": 114},
      {"compound": "CCOC(=O)OC(C)OC(=O)[C@@H]1N2C(=O)[C@@H](NC(=O)[C@H](N)c3ccccc3)[C@H]2SC1(C)C", "note": "(stereo partly drawn) [Bacampicillin hydrochloride]", "nuclei count": 91.6},
      {"compound": "Cc1c(C(=O)NC2CCCCC2)sc2nc3ccc(N)cc3n12", "nuclei count": 99.5},
      {"compound": "CC(C)C[C@H](NC(=O)[C@H](CCc1ccccc1)NC(=O)CN1CCOCC1)C(=O)N[C@@H](Cc1ccccc1)C(=O)N[C@@H](CC(C)C)C(=O)[C@@]1(C)CO1", "note": "[Carfilzomib (PR-171)]", "nuclei count": 7.25},
      {"compound": "O=S(=O)(c1ccccc1)c1cnc2c(N3CCNCC3)cccc2c1", "nuclei count": 105},
      {"compound": "O=C(O[C@H]1CN2CCC1CC2)N1CCc2ccccc2[C@@H]1c1ccccc1", "note": "[Solifenacin succinate]", "nuclei count": 112},
      {"compound": "NC(=O)N/N=C/c1ccc([N+](=O)[O-])o1", "note": "[Nitrofural]", "nuclei count": 104},
      {"compound": "COc1ccc(S(=O)(=O)N2c3ccc(Cl)cc3[C@](O)(c3ccccc3Cl)[C@@H]2C(=O)N2CCC[C@H]2C(N)=O)cc1OC", "nuclei count": 101},
      {"compound": "CN1CCCCC1CCN1c2ccccc2Sc2ccc([S+](C)[O-])cc21", "note": "(stereo not drawn) [Mesoridazine besylate]", "nuclei count": 102},
      {"compound": "O=c1oc(-c2ccc(C(F)(F)F)cc2)nn1Cc1cc(Cl)ccc1O", "nuclei count": 98.4},
      {"compound": "CN1CCCC(n2nc(Cc3ccc(Cl)cc3)c3ccccc3c2=O)CC1", "note": "(stereo not drawn) [Azelastine HCl]", "nuclei count": 88.6},
      {"compound": "CC1=CC(=O)NS(=O)(=O)O1", "note": "[Acesulfame Potassium]", "nuclei count": 95},
      {"compound": "CN(C)CCC[C@@]1(c2ccc(F)cc2)OCc2cc(C#N)ccc21", "note": "[Escitalopram]", "nuclei count": 103},
      {"compound": "CCCC(=O)Nc1ncnc2c1ncn2[C@@H]1O[C@@H]2COP(=O)(O)O[C@H]2[C@H]1OC(=O)CCC", "note": "[Bucladesine sodium salt]", "nuclei count": 96.6},
      {"compound": "CCCC(=O)Nc1ncnc2c1ncn2[C@@H]1O[C@@H]2COP(=O)(O)O[C@H]2[C@H]1OC(=O)CCC", "note": "[Dibutyryl-cAMP, sodium salt]", "nuclei count": 109},
      {"compound": "CCN1CCN(C(=O)N[C@@H](C(=O)N[C@@H]2C(=O)N3[C@@H]2SC(C)(C)[C@@H]3C(=O)O)c2ccccc2)C(=O)C1=O", "note": "[Piperacillin sodium salt]", "nuclei count": 97.1},
      {"compound": "CO[C@@H]1[C@@H](OC(N)=O)[C@@H](O)[C@H](Oc2ccc3c(O)c(NC(=O)c4ccc(O)c(CC=C(C)C)c4)c(=O)oc3c2C)OC1(C)C", "note": "[Novobiocin sodium salt]", "nuclei count": 101},
      {"compound": "Nc1nc2c(nc(Br)n2[C@@H]2O[C@@H]3COP(=O)(O)O[C@H]3[C@H]2O)c(=O)[nH]1", "note": "[8-Bromo-cGMP, sodium salt]", "nuclei count": 99.4},
      {"compound": "CN(NC(=O)CC(=O)NN(C)C(=S)c1ccccc1)C(=S)c1ccccc1", "note": "[Elesclomol]", "nuclei count": 81.7},
      {"compound": "Fc1ccc(-c2nc3n(c2-c2ccncc2)CCS3)cc1", "nuclei count": 103},
      {"compound": "CCC[C@H](N[C@@H](C)C(=O)N1[C@H](C(=O)O)C[C@@H]2CCCC[C@@H]21)C(=O)OCC", "note": "[Perindopril Erbumine (Aceon)]", "nuclei count": 106},
      {"compound": "CCC[C@H](N[C@@H](C)C(=O)N1[C@H](C(=O)O)C[C@@H]2CCCC[C@@H]21)C(=O)OCC", "note": "[Perindopril]", "nuclei count": 113},
      {"compound": "Nc1ccc(C(=O)NCC(=O)O)cc1", "note": "[Aminohippuric acid]", "nuclei count": 102},
      {"compound": "COc1ccc(NS(=O)(=O)c2ccc(N)cc2)nn1", "note": "[Sulfamethoxypyridazine]", "nuclei count": 112},
      {"compound": "CC1(C)OC(=O)NC1=O", "note": "[Dimethadione]", "nuclei count": 119},
      {"compound": "N[C@@H](C(=O)O)c1ccc(C(=O)O)c(C(=O)O)c1", "nuclei count": 108},
      {"compound": "N=C(N)NCC1COC2(CCCCC2)O1", "note": "(stereo not drawn) [Guanadrel sulfate]", "nuclei count": 98.9},
      {"compound": "Nc1ccc(S(=O)(=O)c2ccc(N)cc2)cc1", "note": "[Dapsone]", "nuclei count": 88.6},
      {"compound": "O=Nc1ccc(O)c2ncccc12", "nuclei count": "41.2 and 50.6"},
      {"compound": "O=C(c1ccc(C(=O)N2CCC(N3CCCC3)CC2)c(Nc2ccccc2)c1)N1CCC(N2CCCC2)CC1", "nuclei count": 103},
      {"compound": "OC[C@H]1O[C@@H](Oc2ccc(O)cc2)[C@H](O)[C@@H](O)[C@@H]1O", "note": "[Arbutin]", "nuclei count": 108},
      {"compound": "CN(C)CCc1c[nH]c2ccc(Cn3cncn3)cc12", "note": "[Rizatriptan Benzoate (Maxalt)]", "nuclei count": 105},
      {"compound": "OCCN1CCN(CCCN2c3ccccc3Sc3ccc(Cl)cc32)CC1", "note": "[Perphenazine]", "nuclei count": 98.6},
      {"compound": "N[C@H]1C(O)O[C@H](CO)[C@@H](O)[C@@H]1O", "note": "(stereo partly drawn) [Glucosamine HCl]", "nuclei count": 77.3},
      {"compound": "COC1=CC(c2cc3ccccc3[nH]2)=N/C1=C\\c1[nH]c(C)cc1C", "note": "[Obatoclax mesylate (GX15-070)]", "nuclei count": 45.5},
      {"compound": "O=c1oc(Cl)c(Cl)c2ccccc12", "note": "[3,4-Dichloroisocoumarin]", "nuclei count": 101},
      {"compound": "C=C1C[C@H]2[C@@H]3C=C(C)C4=CC(=O)CC[C@]4(C)[C@H]3CC[C@]2(C)[C@@]1(OC(C)=O)C(C)=O", "note": "[Melengestrol acetate]", "nuclei count": 102},
      {"compound": "CC(C)C[C@@H](C=O)NC(=O)[C@H](CC(C)C)NC(=O)[C@H](CC(C)C)NC(=O)OCc1ccccc1", "nuclei count": "10.9 and 7.59"},
      {"compound": "CCN(CC)Cc1ccc2cc(COC(=O)Nc3ccc(C(=O)NO)cc3)ccc2c1", "note": "[ITF2357 (Givinostat)]", "nuclei count": 14.7},
      {"compound": "CC(=O)Oc1cccc2c1C(=O)c1c(OC(C)=O)cc(C(=O)O)cc1C2=O", "note": "[Diacerein]", "nuclei count": 110},
      {"compound": "CC(C)(C#N)c1ccc(N2C(=O)OCc3cnc4ccc(-c5cnc6ccccc6c5)cc4c32)cc1", "nuclei count": 102},
      {"compound": "NC(C(=O)O)c1cc(O)cc(O)c1", "note": "(racemic)", "nuclei count": 101},
      {"compound": "COc1nc(C)nc(Cl)c1NC1=NCCN1", "note": "[Moxonidine]", "nuclei count": 102},
      {"compound": "COc1nc(C)nc(Cl)c1NC1=NCCN1", "note": "[Moxonidine hydrochloride]", "nuclei count": 102},
      {"compound": "Cc1ccc(NC(=O)c2ccc(CN3CCN(C)CC3)cc2)cc1Nc1nc(-c2cccnc2)cs1", "note": "[Masitinib (AB1010)]", "nuclei count": 90.7},
      {"compound": "CNCCN1CCC(OCc2ccccc2)CC1", "nuclei count": 100},
      {"compound": "CCCC[C@@H](C=O)NC(=O)[C@H](CC(C)C)NC(=O)OCc1ccccc1", "note": "[Calpeptin]", "nuclei count": "102 ± 1.9"},
      {"compound": "NCCS(=O)(=O)O", "note": "[Taurine]", "nuclei count": 106},
      {"compound": "COc1cc2nc(N3CCN(C(=O)c4ccco4)CC3)nc(N)c2cc1OC", "note": "[Prazosin hydrochloride]", "nuclei count": "95.8 ± 3.5"},
      {"compound": "CCn1cc(C(=O)O)c(=O)c2cnc(N3CCNCC3)nc21", "note": "[Pipemidic acid]", "nuclei count": 104},
      {"compound": "N#CC(C#N)=C(N)/C(C#N)=C/c1ccc(O)cc1", "nuclei count": 102},
      {"compound": "O=c1c(O)c(-c2cc(O)c(O)c(O)c2)oc2cc(O)cc(O)c12", "note": "[Myricetin (Cannabiscetin)]", "nuclei count": 94.5},
      {"compound": "CCN(CC)CCOc1ccc(Cc2ccccc2)cc1", "note": "[DPPE fumarate]", "nuclei count": 101},
      {"compound": "Cc1cc(Cn2cnc3c2CC(C(=O)O)N(C(=O)C(c2ccccc2)c2ccccc2)C3)ccc1N(C)C", "note": "(stereo not drawn)", "nuclei count": 101},
      {"compound": "Cc1ccc(S(=O)(=O)NC(=O)NN2CC3CCCC3C2)cc1", "note": "(stereo not drawn) [Gliclazide]", "nuclei count": 106},
      {"compound": "O=c1c(O)cccc2cc(O)c(O)c(O)c12", "note": "[Purpurogallin]", "nuclei count": 90.8},
      {"compound": "c1ccc(C(NCCNC(c2ccccc2)c2ccccc2)c2ccccc2)cc1", "note": "[AMN 082 dihydrochloride]", "nuclei count": 104},
      {"compound": "CC(=O)N[C@@H](CC(=O)N[C@@H](CCC(=O)O)C(=O)O)C(=O)O", "note": "[Spaglumic acid]", "nuclei count": "106 ± 16"},
      {"compound": "Cc1cccc(/C=C/c2ccccc2)n1", "nuclei count": 105},
      {"compound": "COc1ccc2cc(CCC(C)=O)ccc2c1", "note": "[Nabumetone]", "nuclei count": 102}
    ]}
  ]
}
